# Reference: the supplement of paper PMC7125110
# ± gives the standard error. Variants at the floor of the assay are shown more often than the library holds them.
# B1: glmS ribozyme (parent)
# chain: AUAAAAGCGCCAGAACUACAGAAAUGUAGUUGACGAGGAGGAGGUUUAUCGAAUUUUCGGCGGAUGCCUCCAAA
# Variants of: B1
# Experiment: self-cleavage kobs at 2500 uM GlcN6P; higher = faster cleavage; RNA array
# Conditions: with glucosamine-6-phosphate
# Procedure, shortened: (§1)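 Tracking of barcoded ribozyme variants used a hybridised Cy3 probe at 37 °C, after in situ transcription by E. coli RNA polymerase on sequenced MiSeq chips. The flowed solution held 40 μM to 10 mM glucosamine-6-phosphate in HEPES/KCl/Mg(OAc)2 buffer, and imaging ran over ~14 h. kobs was taken from exponential decay fits of normalised per-tile medians, and kcat and KM from weighted Michaelis–Menten fits.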
row,Variant,self-cleavage kobs at 2500 uM GlcN6P
1,G13A G37C U55A C68U,< 1e-05 s⁻¹
2,G13A G40A,5.48e-05 ± 1.2e-05 s⁻¹
3,G13A G40U G63A C67G,< 1e-05 s⁻¹
4,G13A G41C G51U C61A,< 1e-05 s⁻¹
5,G13A U31G,6.35e-05 ± 1.5e-05 s⁻¹
6,G13A U56C,8.37e-05 ± 2e-05 s⁻¹
7,G13A U65G,8.18e-05 ± 2e-05 s⁻¹
8,G13C A14G G37U G59C,< 1e-05 s⁻¹
9,G13C A15C G32U G44A G59U,< 1e-05 s⁻¹
10,G13C A33C G37U,< 1e-05 s⁻¹
11,G13C A33C G38U,< 1e-05 s⁻¹
12,G13C A36C G41U,< 1e-05 s⁻¹
13,G13C A36G A64U C70G,< 1e-05 s⁻¹
14,G13C A36U A48C,< 1e-05 s⁻¹
15,G13C C16A G32U G41U G44U U55A,< 1e-05 s⁻¹
16,G13C C16U C71U,7.64e-05 ± 1.7e-05 s⁻¹
17,G13C C34G C67A,< 1e-05 s⁻¹
18,G13C C34G U49C C71A,< 1e-05 s⁻¹
19,G13C G29C G38U C67G,0.000596 ± 0.0002 s⁻¹
20,G13C G32C G35U U55C U56G C71G,< 1e-05 s⁻¹
21,G13C G32U G43A U55C,< 1e-05 s⁻¹
22,G13C G35C U55G C58U,< 1e-05 s⁻¹
23,G13C U45G A53G G62A C68G C71G,< 1e-05 s⁻¹

row,Variant,self-cleavage kobs at 2500 uM GlcN6P
1,G13C U45G C61G,< 1e-05 s⁻¹
2,G13C U47A U57G U65C,< 1e-05 s⁻¹
3,G13U A14G G38A,< 1e-05 s⁻¹
4,G13U A33C A64G,< 1e-05 s⁻¹
5,G13U A33C A64U C71G,< 1e-05 s⁻¹
6,G13U A36C A42G C58U,< 1e-05 s⁻¹
7,G13U C16A G44C G51U U57G,< 1e-05 s⁻¹
8,G13U C34U G44A U65G,< 1e-05 s⁻¹
9,G13U C58G G63A,< 1e-05 s⁻¹
10,G13U C58U A64G U65G,< 1e-05 s⁻¹
11,G13U C58U G59C,< 1e-05 s⁻¹
12,G13U C61G C71U,< 1e-05 s⁻¹
13,G13U G29U C70A,4.33e-05 ± 1.9e-05 s⁻¹
14,G13U G37A G40C A52C A53G,< 1e-05 s⁻¹
15,G13U G37C G40C G44U U54C G66C,< 1e-05 s⁻¹
16,G13U G38U U54G G62A,< 1e-05 s⁻¹
17,G13U G60C G63U C68G,< 1e-05 s⁻¹
18,G13U G62A G63U U65G,< 1e-05 s⁻¹
19,G13U U31C C70U,0.000186 ± 4.5e-05 s⁻¹
20,G13U U45A U46A C58U,6.89e-05 ± 3.4e-05 s⁻¹
21,G13U U46A U49A,< 1e-05 s⁻¹
22,G13U U47G C67A,7.8e-05 ± 1.6e-05 s⁻¹
23,A14C A33C C58A,< 1e-05 s⁻¹

row,Variant,self-cleavage kobs at 2500 uM GlcN6P
1,A14C A42U U45G U46C G63C A64G,< 1e-05 s⁻¹
2,A14C A48G C70U,5.88e-05 ± 2.6e-05 s⁻¹
3,A14C A52C C58A C61U,< 1e-05 s⁻¹
4,A14C A53C C67G,< 1e-05 s⁻¹
5,A14C C16A G63A,< 1e-05 s⁻¹
6,A14C C34G G62U,< 1e-05 s⁻¹
7,A14C G32U U47C C67G,< 1e-05 s⁻¹
8,A14C G35A A39G U69C,< 1e-05 s⁻¹
9,A14C G35A A52G,< 1e-05 s⁻¹
10,A14C G35U G66C,< 1e-05 s⁻¹
11,A14C G37U G38C C71A,< 1e-05 s⁻¹
12,A14C G38A G43A U55G,< 1e-05 s⁻¹
13,A14C G41U A42U A64U C70G,< 1e-05 s⁻¹
14,A14C G41U C68A,< 1e-05 s⁻¹
15,A14C G51A A53C G60C,< 1e-05 s⁻¹
16,A14C U30C A33U G63A,< 1e-05 s⁻¹
17,A14C U30C G66A,< 1e-05 s⁻¹
18,A14C U30G C58G,5.75e-05 ± 2.4e-05 s⁻¹
19,A14C U31A U57A G63C G66A,< 1e-05 s⁻¹
20,A14C U46C C70U,0.000279 ± 5.2e-05 s⁻¹
21,A14C U47G A48U G51A,< 1e-05 s⁻¹
22,A14G A15G G29C U31A C34G G43U G62A,< 1e-05 s⁻¹
23,A14G A33G U46C A52C,< 1e-05 s⁻¹

row,Variant,self-cleavage kobs at 2500 uM GlcN6P
1,A14G A42G G60U C71G,< 1e-05 s⁻¹
2,A14G C16G U30G U49C U54A C67G C68U,< 1e-05 s⁻¹
3,A14G C16U U30G G35C U45G,< 1e-05 s⁻¹
4,A14G C34U G35A G43C,< 1e-05 s⁻¹
5,A14G G29A C70G,0.000126 ± 4e-05 s⁻¹
6,A14G G32U A33U C68G,< 1e-05 s⁻¹
7,A14G G35U G37A,< 1e-05 s⁻¹
8,A14G G38C A39U G60A,< 1e-05 s⁻¹
9,A14G U30G A42C C68G,< 1e-05 s⁻¹
10,A14G U31C G43C,< 1e-05 s⁻¹
11,A14G U55G G66U,0.00182 ± 0.00038 s⁻¹
12,A14U A15U G62A A64G,< 1e-05 s⁻¹
13,A14U C67A C71U,0.000265 ± 5.2e-05 s⁻¹
14,A14U G29A A64U,< 1e-05 s⁻¹
15,A14U G29U A48G,< 1e-05 s⁻¹
16,A14U G32U A64C C70U,< 1e-05 s⁻¹
17,A14U G35U A36U,< 1e-05 s⁻¹
18,A14U G40A C68G,< 1e-05 s⁻¹
19,A14U G40C G66C,9.83e-05 ± 2.2e-05 s⁻¹
20,A14U G40U G51C,< 1e-05 s⁻¹
21,A14U G44U U46A C61U G66A,< 1e-05 s⁻¹
22,A14U G51A C58G G60U G63U U65A,< 1e-05 s⁻¹
23,A14U G51U G60U,< 1e-05 s⁻¹

row,Variant,self-cleavage kobs at 2500 uM GlcN6P
1,A14U G66C,4.36e-05 ± 8e-06 s⁻¹
2,A14U U30A C71G,5.1e-05 ± 1.2e-05 s⁻¹
3,A14U U49A C58U,< 1e-05 s⁻¹
4,A14U U49C C71U,< 1e-05 s⁻¹
5,A15C A33C,3.95e-05 ± 1.2e-05 s⁻¹
6,A15C A33G,< 1e-05 s⁻¹
7,A15C A33U U54G G60A A64U,< 1e-05 s⁻¹
8,A15C A36G U56C U69G C71U,< 1e-05 s⁻¹
9,A15C A39U A52C C70A,< 1e-05 s⁻¹
10,A15C A42G C70G,7.41e-05 ± 1.9e-05 s⁻¹
11,A15C A52U G62U,< 1e-05 s⁻¹
12,A15C A64C C68U,< 1e-05 s⁻¹
13,A15C C34A U57G A64U,< 1e-05 s⁻¹
14,A15C G29A U46C C67G,< 1e-05 s⁻¹
15,A15C G35U C67U C68A,< 1e-05 s⁻¹
16,A15C G40A G44U,< 1e-05 s⁻¹
17,A15C G40C A52U,< 1e-05 s⁻¹
18,A15C G43A U55G G59U,< 1e-05 s⁻¹
19,A15C G51A U55C C58U,< 1e-05 s⁻¹
20,A15C U45C C50G C68U,< 1e-05 s⁻¹
21,A15C U47C U55C,0.000237 ± 7.7e-05 s⁻¹
22,A15C U49G,8.06e-05 ± 2.4e-05 s⁻¹
23,A15G A39C U45A U56C,0.000239 ± 5.6e-05 s⁻¹

row,Variant,self-cleavage kobs at 2500 uM GlcN6P
1,A15G C16A G44C,< 1e-05 s⁻¹
2,A15G C16G C71G,0.000115 ± 4e-05 s⁻¹
3,A15G C34G G35A G43A A64G,< 1e-05 s⁻¹
4,A15G C34U G35C,< 1e-05 s⁻¹
5,A15G G29A A36G,< 1e-05 s⁻¹
6,A15G G29U C50G,5.06e-05 ± 2.4e-05 s⁻¹
7,A15G G37U C61A C68A C70G,4.28e-05 ± 2e-05 s⁻¹
8,A15G G40C G59U G63A,< 1e-05 s⁻¹
9,A15G G41U G51U C70G,< 1e-05 s⁻¹
10,A15G G44C,0.00014 ± 4.2e-05 s⁻¹
11,A15G G44U C50U A64U,< 1e-05 s⁻¹
12,A15G G59U G63U,< 1e-05 s⁻¹
13,A15G U31C G41U U47G G59A C67U,< 1e-05 s⁻¹
14,A15G U49C C58U G60C,< 1e-05 s⁻¹
15,A15G U55A A64U,9.74e-05 ± 1.8e-05 s⁻¹
16,A15U A33C G38C U46G U57G,< 1e-05 s⁻¹
17,A15U A33G G40U G66C C67A,< 1e-05 s⁻¹
18,A15U C16A U30C A48C,< 1e-05 s⁻¹
19,A15U C34U U55C C70A,< 1e-05 s⁻¹
20,A15U G29A A33G,< 1e-05 s⁻¹
21,A15U G29C C50U,< 1e-05 s⁻¹
22,A15U G29U A33U G44C A53G U55C,< 1e-05 s⁻¹
23,A15U G38U G51A,< 1e-05 s⁻¹

row,Variant,self-cleavage kobs at 2500 uM GlcN6P
1,A15U G40A G41U G66A C67G,< 1e-05 s⁻¹
2,A15U G41A U55A C61G,< 1e-05 s⁻¹
3,A15U G44A G51A A53U,< 1e-05 s⁻¹
4,A15U U31G G59A,< 1e-05 s⁻¹
5,C16A A33U A52U,< 1e-05 s⁻¹
6,C16A A36G A48G A53C,< 1e-05 s⁻¹
7,C16A A39G U69G,0.000118 ± 3.8e-05 s⁻¹
8,C16A G29A C70A,6.39e-05 ± 2.4e-05 s⁻¹
9,C16A G37A C58U,< 1e-05 s⁻¹
10,C16A G43C U45C G62A,< 1e-05 s⁻¹
11,C16A G51U A52C G60U,< 1e-05 s⁻¹
12,C16A G66A C71G,5.24e-05 ± 2.5e-05 s⁻¹
13,C16A U30C,2.62e-05 ± 9e-06 s⁻¹
14,C16A U31A A39G U57C G60U,< 1e-05 s⁻¹
15,C16A U49C G59U U69A,< 1e-05 s⁻¹
16,C16A U54C U56G G60U,< 1e-05 s⁻¹
17,C16G A42U G44A U54A U65C C68U,< 1e-05 s⁻¹
18,C16G C50A C70A,8.7e-05 ± 2.4e-05 s⁻¹

# Variants of: B1
# Experiment: self-cleavage kobs at 10000 uM GlcN6P; higher = faster cleavage; RNA array
# Conditions: with glucosamine-6-phosphate
# Procedure, shortened: as §1
row,Variant,self-cleavage kobs at 10000 uM GlcN6P
1,G13A G40A,0.00011 ± 1.8e-05 s⁻¹
2,G13A U31G,0.000153 ± 2.2e-05 s⁻¹
3,G13A U56C,0.00021 ± 3.7e-05 s⁻¹
4,G13C C16U C71U,0.000169 ± 5.1e-05 s⁻¹
5,G13U U31C C70U,0.000187 ± 3.2e-05 s⁻¹
6,A14C U46C C70U,0.000482 ± 9.4e-05 s⁻¹
7,A14G C16G U30G U49C U54A C67G C68U,< 1e-05 s⁻¹
8,A14G U55G G66U,0.00253 ± 0.00062 s⁻¹
9,A14U G29A A64U,< 1e-05 s⁻¹
10,A14U G40C G66C,0.00012 ± 2.4e-05 s⁻¹
11,A14U G66C,9.18e-05 ± 1e-05 s⁻¹
12,A15C A33C,5.37e-05 ± 6.3e-06 s⁻¹
13,A15C A33G,< 1e-05 s⁻¹
14,A15C A42G C70G,4.12e-05 ± 1.7e-05 s⁻¹
15,A15C G29A U46C C67G,< 1e-05 s⁻¹
16,A15C G51A U55C C58U,< 1e-05 s⁻¹
17,A15G C16G C71G,9.34e-05 ± 2.6e-05 s⁻¹
18,A15G G29A A36G,< 1e-05 s⁻¹
19,A15G G44C,0.000166 ± 3.2e-05 s⁻¹
20,C16A U30C,2.12e-05 ± 8.1e-06 s⁻¹
21,C16A U49C G59U U69A,< 1e-05 s⁻¹
